Patent US20190367516A1 (Bayer Pharma Aktiengesellschaft, priority 2015, published 2019)

Biological target: T1, human M2 receptor (Homo sapiens, UniProt P08172)
T1 sequence (P08172 1-466): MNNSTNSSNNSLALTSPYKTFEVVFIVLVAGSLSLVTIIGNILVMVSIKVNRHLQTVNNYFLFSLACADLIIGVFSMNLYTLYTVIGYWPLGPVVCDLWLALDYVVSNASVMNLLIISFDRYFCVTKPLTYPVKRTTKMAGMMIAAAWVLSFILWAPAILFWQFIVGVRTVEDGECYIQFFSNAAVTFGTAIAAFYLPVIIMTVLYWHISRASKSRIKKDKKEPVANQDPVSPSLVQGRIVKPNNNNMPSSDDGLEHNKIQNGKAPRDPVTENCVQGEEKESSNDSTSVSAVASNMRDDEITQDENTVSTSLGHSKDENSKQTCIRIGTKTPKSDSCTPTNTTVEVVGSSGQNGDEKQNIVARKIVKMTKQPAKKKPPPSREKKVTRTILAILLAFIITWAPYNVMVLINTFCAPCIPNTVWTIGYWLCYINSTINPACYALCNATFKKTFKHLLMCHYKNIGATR
Settings: boosting of the acetylcholine effect at an EC20 acetylcholine concentration; for Emax: read-out: Efficiency, M2-GIRK1/4 activation test

SMILES | Emax | Efficiency (M2-GIRK1/4 activation test)
CN(C)c1ccc2c(=O)c(C(=O)NCc3c(Cl)cccc3C(F)(F)F)cn(-c3ccc(F)cc3F)c2n1 [Example 58, N-[2-Chloro-6-(trifluoromethyl)benzyl]-1-(2,4-difluorophenyl)-7-(dimethylamino)-4-oxo-1,4-dihydro-l,8-naphthyridine-3-carboxamide] | 100% | 
O=C(NC(c1ccccc1Cl)C(F)(F)F)c1cn(-c2ccc(F)cc2F)c2nc(N3CC[C@H](F)C3)ccc2c1=O (stereo partly drawn) [Example 217, N-[1-(2-Chlorophenyl)-2,2,2-trifluoroethyl]-1-(2,4-difluorophenyl)-7-[(3S)-3-fluoropyrrolidin-1-yl]-4-oxo-1,4-dihydro-1,8-naphthyridine-3-carboxamide] | 96.3% | 
CCC(COC(F)(F)F)NC(=O)c1cn(-c2ccc(F)cc2F)c2nc(N3C[C@@H](O)CC3=O)ccc2c1=O (stereo partly drawn) [Example 234, 1-(2,4-Difluorophenyl)-7-[(4S)-4-hydroxy-2-oxopyrrolidin-1-yl]-4-oxo-N-[1-(trifluoromethoxy)butan-2-yl]-1,4-dihydro-1,8-naphthyridine-3-carboxamide] | 89.8% | 
CC[C@@H](NC(=O)c1cn(-c2ccc(F)cc2F)c2nc(N3CCCC3)ccc2c1=O)C(F)(F)F [Example 192, 1-(2,4-Difluorophenyl)-4-oxo-7-(pyrrolidin-1-yl)-N-[(2R)-1,1,1-trifluorobutan-2-yl]-1,4-dihydro-1,8-naphthyridine-3-carboxamide] | 91.7% | 
Cc1cccc(C)c1NC(=O)c1cn(-c2ccc(F)cc2F)c2nc(N(C)C)ccc2c1=O [Example 54, 1-(2,4-Difluorophenyl)-7-(dimethylamino)-N-(2,6-dimethylphenyl)-4-oxo-1,4-dihydro-1,8-naphthyridine-3-carboxamide] | 98.3% | 
CC(COC(F)(F)F)NC(=O)c1cn(-c2ccc(F)cc2F)c2nc(N(C)C)ccc2c1=O (racemic) [Example 231, 1-(2,4-Difluorophenyl)-7-(dimethylamino)-4-oxo-N-[1-(trifluoromethoxy)propan-2-yl]-1,4-dihydro-1,8-naphthyridine-3-carboxamide] | 95.4% | 
CC(C)CC(NC(=O)c1cn(-c2ccc(F)cc2F)c2nc(NCCO)ccc2c1=O)C(F)(F)F (stereo not drawn) [Example 80, 1-(2,4-Difluorophenyl)-7-[(2-hydroxyethyl)amino]-4-oxo-N-[1,1,1-trifluoro-4-methylpentan-2-yl]-1,4-dihydro-1,8-naphthyridine-3-carboxamide] | 94% | 
CC[C@@H](NC(=O)c1cn(-c2ccc(F)cc2F)c2nc(N3CC(OC(=O)NC)CC3=O)ccc2c1=O)C(F)(F)F (stereo partly drawn) [Example 200, (3S)-1-[8-(2,4-Difluorophenyl)-5-oxo-6-{[(2R)-1,1,1-trifluorobutan-2-yl]carbamoyl}-5,8-dihydro-1,8-naphthyridin-2-yl]-5-oxopyrrolidin-3-yl methyl carbamate] | 83.3% | 
CC(C)(NC(=O)c1cn(-c2ccc(F)cc2F)c2nc(N3CC[C@@H](O)C3)ccc2c1=O)c1c(F)cccc1F [Example 21, 1-(2,4-Difluorophenyl)-N-[2-(2,6-difluorophenyl)propan-2-yl]-7-[(3R)-3-hydroxypyrrolidin-1-yl]-4-oxo-1,4-dihydro-1,8-naphthyridine-3-carboxamide] | 100% | 
CN(C)c1ccc2c(=O)c(C(=O)NCc3ccc(F)cc3F)cn(-c3ccc(F)cc3F)c2n1 [Example 50, N-(2,4-Dmuorobenzyl)-1-(2,4-difluorophenyl)-7-(dimethylamino)-4-oxo-1,4-dihydro-1,8-naphthyridine-3-carboxamide] | 95% | 
CC(C)[C@H](NC(=O)c1cn(-c2ccc(F)cc2F)c2nc(N(C)C)ccc2c1=O)C(F)(F)F [Example 134, 1-(2,4-Difluorophenyl)-7-(dimethylamino)-4-oxo-N-[(2S)-1,1,1-trifluoro-3-methylbutan-2-yl]-1,4-dihydro-1,8-naphthyridine-3-carboxamide] | 92.5% | 
CN(C)c1ccc2c(=O)c(C(=O)NC(c3ccccc3Cl)C(F)(F)F)cn(-c3ccc(F)cc3F)c2n1 (racemic) [Example 48, rac-N-[1-(2-Chlorophenyl)-2,2,2-trifluoroethyl]-1-(2,4-difluorophenyl)-7-(dimethylamino)-4-oxo-1,4-dihydro-1,8-naphthyridine-3-carboxamide] | 94.8% | 
O=C(NC12CC3CC(CC(F)(C3)C1)C2)c1cn(-c2ccc(F)cc2F)c2nc(NCC(F)(F)F)ccc2c1=O [Example 91, 1-(2,4-Difluorophenyl)-N-(3-fluorotricyclo[3.3.1.1^3,7]dec-1-yl)-4-oxo-7-[(2,2,2-trifluoroethyl)amino]-1,4-dihydro-1,8-naphthyridine-3-carboxamide] | 90.5% | 
CNc1ccc2c(=O)c(C(=O)NC34CC5CC(C3)C(F)(F)C(C5)C4)cn(-c3ccc(F)cc3F)c2n1 [Example 161] | 99.5% | 
O=C(NC12CC3CC(CC(C3)C1)C2)c1cn(-c2ccc(F)cc2F)c2nc(N3CCC(O)CC3=O)ccc2c1=O (stereo not drawn) [Example 173] | 100% | 
CC[C@@H](NC(=O)c1cn(-c2ccc(F)cc2F)c2nc(N3C[C@@H](F)C[C@H]3C)ccc2c1=O)C(F)(F)F [Example 31, 1-(2,4-Difluorophenyl)-7-[(2R,4S)-4-fluoro-2-methylpyrrolidin-1-yl]-4-oxo-N-[(2R)-1,1,1-trifluorobutan-2-yl]-1,4-dihydro-1,8-naphthyridine-3-carboxamide] | 97% | 

Now from value to compound:

Emax | Efficiency (M2-GIRK1/4 activation test) | SMILES
88% |  | C[C@@H]1C[C@](C)(O)CN1c1ccc2c(=O)c(C(=O)N[C@@H](C)C(F)(F)F)cn(-c3c(F)cc(F)cc3Cl)c2n1 [Example 390, 1-(2-Chloro-4,6-difluorophenyl)-7-[(2R,4S)-4-hydroxy-2,4-dimethylpyrrolidin-1-yl]-4-oxo-N-[(2S)-1,1,1-trifluoropropan-2-yl]-1,4-dihydro-1,8-naphthyridine-3-carboxamide]
97% |  | O=C(NC(C1CC1)C(F)(F)F)c1cn(-c2ccc(F)cc2F)c2nc(N3C[C@@H](O)CC3=O)ccc2c1=O (mixture of isomers) [Example 283]
90% |  | CC[C@@H](NC(=O)c1cn(-c2ccc(F)cc2F)c2nc(N3CCNC3=O)ccc2c1=O)C(F)(F)F [Example 320, 1-(2,4-Difluorophenyl)-4-oxo-7-(2-oxoimidazolidin-1-yl)-N-[(2R)-1,1,1-trifluorobutan-2-yl]-1,4-dihydro-1,8-naphthyridine-3-carboxamide]
99% |  | O=C(N[C@@H](C1CC1)C(F)(F)F)c1cn(-c2c(F)cc(F)cc2Cl)c2nc(N3C[C@@H](O)CC3=O)ccc2c1=O [Example 338, 1-(2-Chloro-4,6-difluorophenyl)-N-[(1 S)-1-cyclopropyl-2,2,2-trifluoroethyl]-7-[(4S)-4-hydroxy-2-oxopyrrolidin-1-yl]-4-oxo-1,4-dihydro-1,8-naphthyridine-3-carboxamide]
 | 96.7% | O=C(NC(c1c(F)cccc1F)C(F)(F)F)c1cn(-c2ccc(F)cc2F)c2nc(N3CCC(O)CC3=O)ccc2c1=O (single isomer, unassigned) [Example 255, 1-(2,4-Difluorophenyl)-N-[1-(2,6-difluorophenyl)-2,2,2-trifluoroethyl]-7-[4-hydroxy-2-oxopiperidin-1-yl]-4-oxo-1,4-dihydro-1,8-naphthyridine-3-carboxamide]
97.8% |  | O=C(N[C@@H](C1CC1)C(F)(F)F)c1cn(-c2ccc(F)cc2F)c2nc(N3C[C@@H](O)CC3=O)ccc2c1=O (single isomer, unassigned) [Example 284]
97.5% |  | O=C(NC12CC(C(F)(F)F)(C1)C2)c1cn(-c2c(F)cc(F)cc2F)c2nc(N3C[C@@H](O)[C@H](O)C3)ccc2c1=O [Example 371, 7-[(3R,4R)-3,4-Dihydroxypyrrolidin-1-yl]-4-oxo-N-[3-(trifluoromethyl)bicyclo[1.1.1]pent-1-yl]-1-(2,4,6-trifluorophenyl)-1,4-dihydro-1,8-naphthyridine-3-carboxamide]
95.8% |  | O=C(NC(c1c(F)cccc1F)C(F)(F)F)c1cn(-c2ccc(F)cc2F)c2nc(N3CC[C@H](F)C3)ccc2c1=O (mixture of isomers) [Example 241, 1-(2,4-Difluorophenyl)-N-[1-(2,6-difluorophenyl)-2,2,2-trifluoroethyl]-7-[(3S)-3-fluoropyrrolidin-1-yl]-4-oxo-1,4-dihydro-1,8-naphthyridine-3-carboxamide]
90.5% |  | CC[C@@H](NC(=O)c1cn(-c2c(F)cccc2F)c2nc(N3CCC(O)C3=O)ccc2c1=O)C(F)(F)F (mixture of isomers) [Example 292, 1-(2,6-Difluorophenyl)-7-[3-hydroxy-2-oxopyrrolidin-1-yl]-4-oxo-N-[(2R)-1,1,1-trifluorobutan-2-yl]-1,4-dihydro-1,8-naphthyridine-3-carboxamide]
95.5% |  | O=C(N[C@H](C1CC1)C(F)(F)F)c1cn(-c2c(F)cccc2F)c2nc(N3CC4CC4(O)C3)ccc2c1=O (mixture of isomers) [Example 319, N-[(1R)-1-Cyclopropyl-2,2,2-trifluoroethyl]-1-(2,6-difluorophenyl)-7-[1-hydroxy-3-azabicyclo[3.1.0]hex-3-yl]-4-oxo-1,4-dihydro-1,8-naphthyridine-3-carboxamide]
92.5% |  | CC[C@@H](NC(=O)c1cn(-c2ccc(F)cc2F)c2nc(N3CC(O)C(C)(C)C3)ccc2c1=O)C(F)(F)F (stereo partly drawn) [Example 356, 1-(2,4-Difluorophenyl)-7-[4-hydroxy-3,3-dimethylpyrrolidin-1-yl]-4-oxo-N-[(2R)-1,1,1-trifluorobutan-2-yl]-1,4-dihydro-1,8-naphthyridine-3-carboxamide]
